# Assay results from article PMC4336329 (PLoS ONE, 2015).
# In all, about 310,000 compounds went through this assay and about 2,200 (0.71%) showed an effect of 50% or more. The effect is printed as a negative number. The list shows a part of the results.
# Target: human ether-à-go-go-related gene (hERG) potassium channel (human, UniProt Q12809)
# Assay: primary screen, population patch clamp on CHO cells stably expressing hERG
# Chain of human ether-à-go-go-related gene (hERG) potassium channel (Q12809 whole entry, looked up): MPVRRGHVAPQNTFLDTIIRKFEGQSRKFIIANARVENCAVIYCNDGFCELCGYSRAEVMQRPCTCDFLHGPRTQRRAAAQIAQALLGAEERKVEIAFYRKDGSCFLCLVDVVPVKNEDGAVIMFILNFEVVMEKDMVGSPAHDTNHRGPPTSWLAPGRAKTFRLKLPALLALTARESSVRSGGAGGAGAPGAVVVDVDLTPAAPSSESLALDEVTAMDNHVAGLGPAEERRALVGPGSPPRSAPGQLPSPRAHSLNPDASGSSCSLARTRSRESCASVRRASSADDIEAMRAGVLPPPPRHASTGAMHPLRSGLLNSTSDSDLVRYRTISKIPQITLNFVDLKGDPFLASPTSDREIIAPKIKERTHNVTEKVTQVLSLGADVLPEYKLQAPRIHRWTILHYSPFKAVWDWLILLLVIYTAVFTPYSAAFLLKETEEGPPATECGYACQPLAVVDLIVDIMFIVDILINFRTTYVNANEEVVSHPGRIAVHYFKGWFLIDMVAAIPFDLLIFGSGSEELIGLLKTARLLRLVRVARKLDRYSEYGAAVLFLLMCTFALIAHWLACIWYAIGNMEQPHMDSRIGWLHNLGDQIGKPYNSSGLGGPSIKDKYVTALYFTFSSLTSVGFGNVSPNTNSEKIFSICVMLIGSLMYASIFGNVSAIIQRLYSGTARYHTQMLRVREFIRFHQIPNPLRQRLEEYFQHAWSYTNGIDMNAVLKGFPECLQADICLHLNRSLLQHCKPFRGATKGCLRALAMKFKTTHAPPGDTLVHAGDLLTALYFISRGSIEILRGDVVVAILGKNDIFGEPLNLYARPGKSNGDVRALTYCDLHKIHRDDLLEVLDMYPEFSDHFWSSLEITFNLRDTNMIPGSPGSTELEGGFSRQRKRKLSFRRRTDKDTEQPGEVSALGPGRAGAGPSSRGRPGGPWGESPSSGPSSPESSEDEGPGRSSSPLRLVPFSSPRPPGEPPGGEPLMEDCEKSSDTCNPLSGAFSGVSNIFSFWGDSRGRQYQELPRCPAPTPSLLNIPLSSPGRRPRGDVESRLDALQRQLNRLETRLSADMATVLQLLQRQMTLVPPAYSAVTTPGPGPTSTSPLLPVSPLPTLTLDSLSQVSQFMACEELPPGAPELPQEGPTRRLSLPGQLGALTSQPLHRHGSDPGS
row,SMILES,"hERG current change (%, negative = inhibition) at 1uM [%]"
1,COc1ccc2[nH]c(C)c(C(=O)CN3CC(C)OC(C)C3)c2c1 (stereo not drawn),5.05
2,COc1ccc2c3c([nH]c2c1)[C@H]1C[C@H]2[C@H](C[C@@H](O)[C@H](OC)[C@H]2C(=O)O)CN1CC3.Cl,-1.84
3,CC(C)(CNc1ccc([N+](=O)[O-])cc1Cl)CNS(C)(=O)=O,7.18
4,CCCCC(=O)Nc1nnc(SCC(=O)N2CCN(c3ccccc3OC)CC2)s1,2.5
5,CCOc1cccc(CN(C)CC2CCCN(CCc3ccc(Cl)cc3)C2)c1O (stereo not drawn),1.13
6,CCOc1ccccc1N(CC(=O)NC1CCCCC1)S(C)(=O)=O,4.23
7,COC(=O)c1cnc(Oc2c(Cl)cc(N)cc2Cl)cc1C(F)(F)F,22.8
8,Cc1ccc(NC(=O)CC(C)S(=O)(=O)c2ccc3c(c2)NC(=O)CO3)cc1C (stereo not drawn),15.6
9,COc1ccc(/C=C/C(=O)O)cc1S(=O)(=O)N1CCCC1,5.99
10,COC(=O)c1cc(=O)n(CCc2ccccc2)c(=Nc2ccc(F)cc2)s1,15.2
11,O=C1NC(=S)N/C1=C/c1cccc([N+](=O)[O-])c1O,12.3
12,CSc1c(C#N)c(N)nc2sc(C(=O)c3ccc(Cl)c(Cl)c3)c(N)c12,-0.345
13,CCN(c1ccccc1C)S(=O)(=O)c1cc2c3c(c1)CCC(=O)N3CCC2,10.7
14,O=C(NCCOc1ccccc1F)C1CCC(=O)N(CCc2cccc(F)c2)C1 (stereo not drawn),-6.97
15,O=C(/C=C/c1ccccn1)c1ccc(Br)cc1O,14.2
16,O=C(Nc1nnc(CC2=CCCCC2)s1)Nc1ccccc1F,1.57
17,COc1ccc(N2CC(C(=O)Nc3ccc(S(=O)(=O)Nc4nc(C)cc(C)n4)cc3)CC2=O)cc1 (stereo not drawn),8.03
18,O=C1N=C(c2ccccc2)C(c2ccccc2)N1 (stereo not drawn),0.749
19,CCN1C(=O)S/C(=C/c2ccc(Sc3nc4ccccc4[nH]3)o2)C1=O,9.65
20,COc1cc(S(=O)(=O)Nc2cccnc2)ccc1Cl,9.5
21,COC(=O)c1ccc(NC(=O)CO/N=C2\CCCc3nonc32)cc1,10.1
22,CC(=O)Nc1ccc(NC(=O)c2ccc3c(c2)CCN3S(C)(=O)=O)cc1,11.9
23,CCCCC12CN3CCN(CC(C3)/C1=N\NC(=O)Nc1ccccc1)C2,6.63
24,CN(C)CCCNc1ccc(S(N)(=O)=O)cc1[N+](=O)[O-],-4.9
